Source: article PMC4336329 (PLoS ONE, 2015)
About 14,000 (4.5%) of roughly 310,000 compounds showed an effect of 50% or more. Effects have a minus sign here. The list shows a part of the results.

What follows are compounds tested against human ether-à-go-go-related gene (hERG) potassium channel (human, UniProt Q12809) (assay: primary screen, population patch clamp on CHO cells stably expressing hERG).
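Further: peak tail current of the secondary pulse compared with the same well before compound.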

human ether-à-go-go-related gene (hERG) potassium channel, sequence (Q12809 whole entry, looked up): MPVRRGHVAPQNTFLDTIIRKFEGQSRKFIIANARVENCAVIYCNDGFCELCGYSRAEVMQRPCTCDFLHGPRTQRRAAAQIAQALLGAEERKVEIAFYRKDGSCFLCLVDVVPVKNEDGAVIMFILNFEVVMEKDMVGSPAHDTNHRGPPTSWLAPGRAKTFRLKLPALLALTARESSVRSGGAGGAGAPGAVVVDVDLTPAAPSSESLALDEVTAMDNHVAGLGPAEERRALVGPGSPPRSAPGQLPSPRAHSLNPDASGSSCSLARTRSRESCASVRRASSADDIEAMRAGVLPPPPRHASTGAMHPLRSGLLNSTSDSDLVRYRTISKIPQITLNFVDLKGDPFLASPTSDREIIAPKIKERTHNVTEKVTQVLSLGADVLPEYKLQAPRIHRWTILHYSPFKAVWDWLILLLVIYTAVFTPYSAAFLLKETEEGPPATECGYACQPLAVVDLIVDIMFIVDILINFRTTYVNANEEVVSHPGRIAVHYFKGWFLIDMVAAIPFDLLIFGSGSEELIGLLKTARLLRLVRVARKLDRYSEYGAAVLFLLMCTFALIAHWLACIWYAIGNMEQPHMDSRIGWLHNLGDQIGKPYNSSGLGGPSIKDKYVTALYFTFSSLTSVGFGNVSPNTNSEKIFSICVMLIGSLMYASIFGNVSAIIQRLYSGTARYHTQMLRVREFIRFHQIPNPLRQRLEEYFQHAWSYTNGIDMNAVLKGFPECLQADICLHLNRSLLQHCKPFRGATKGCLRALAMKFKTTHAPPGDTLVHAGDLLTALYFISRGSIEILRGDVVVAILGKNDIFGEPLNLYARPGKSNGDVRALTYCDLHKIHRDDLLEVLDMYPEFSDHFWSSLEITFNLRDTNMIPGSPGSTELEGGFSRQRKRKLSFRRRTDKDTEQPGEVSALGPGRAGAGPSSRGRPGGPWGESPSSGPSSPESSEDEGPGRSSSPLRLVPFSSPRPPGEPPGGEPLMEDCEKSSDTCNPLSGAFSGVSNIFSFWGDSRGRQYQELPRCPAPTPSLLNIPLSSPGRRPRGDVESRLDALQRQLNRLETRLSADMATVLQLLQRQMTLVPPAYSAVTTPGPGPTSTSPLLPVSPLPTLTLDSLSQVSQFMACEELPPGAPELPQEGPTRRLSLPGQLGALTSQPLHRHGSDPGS

Row | Compound | hERG current change (%, negative = inhibition) at 10uM
1 | COCCNC(=O)C(c1ccc(O)cc1)N(C(=O)CCC(=O)Nc1nccs1)c1ccc(C)cc1 (stereo not shown) | 1.69%
2 | C[C@@H](C(=O)NCc1c(F)cccc1Cl)N1C(=O)N2CCc3c([nH]c4ccccc34)[C@@]2(C)C1=O | -10.8%
3 | COc1ccccc1NC(=O)C(=N\O)/C(C)=N/O | 5.64%
4 | CCOc1ccc2[nH]c(=O)c(CN(Cc3ccc(F)cc3)C(=O)c3ccco3)cc2c1 | -31.8%
5 | O=c1[nH][nH]c(=O)c2cc([N+](=O)[O-])ccc12 | 25.2%
6 | CCOc1cc(NC(=S)NC)c(OCC)cc1NC(=O)c1ccc(OC)cc1 | -1.61%
7 | CC1(OC(=O)C2CCCC2)C(=O)C=C2C=C3CCCN3C=C2C1=O (stereo not shown) | -3.77%
8 | COc1ccccc1NS(=O)(=O)c1cc(NC(=O)CCc2nc3ccccc3c(=O)[nH]2)ccc1C | -24.9%
9 | O=C(CC(Sc1n[nH]c(-c2ccccc2)n1)c1ccccc1)NCc1ccccc1 (stereo not shown) | -16%
10 | CCN(c1ccc(NC(=O)COC(=O)c2ccc3ccccc3n2)cc1)C(C)C | 3.98%
11 | Cc1ccc(C(=O)N2CCN(c3cc(=O)[nH]nc3-c3ccccc3)CC2)cc1 | -41.7%
12 | CC(Oc1ccc([N+](=O)[O-])cc1)C(=O)NCCCN1CCOCC1 (stereo not shown) | -16.8%
13 | Cc1ccccc1Cn1cc(NC(=O)c2cc(C3CC3)on2)cn1 | -2.87%
14 | COCCOCCOCCC(=O)NC1CC2CCC1(C)C2(C)C (stereo not shown) | 0.486%
15 | CCOC(=O)c1c(-c2ccc(OC)cc2)csc1NC(=O)CSc1nnc(C)c(=O)[nH]1 | 16.1%
16 | CCN1CCN(C(=O)C2CCC(=O)N(Cc3cccc(C(F)(F)F)c3)C2)CC1 (stereo not shown) | 14%
17 | CCCCN(C(=O)c1cc(Cl)nc2ccccc12)c1c(N)n(CCCC)c(=O)[nH]c1=O | 3.26%
18 | OCCc1ccc(O)c(-n2nc3ccccc3n2)c1 | -17.1%
19 | Cc1noc(NS(=O)(=O)c2ccc(NC(=O)c3ccc(OC(C)C)cc3)cc2)c1C | 15.4%
20 | Cc1ccccc1-c1nc(CN2CCCC(C(=O)NCc3cccnc3)C2)c(C)o1 (stereo not shown) | -64%
21 | COc1cccc(-c2cc(C(F)(F)F)nc(-n3cc(Cl)cn3)n2)c1 | -6.19%
22 | CCc1nnc(NC(=O)CN2CCN(C3CCCCC3)CC2)s1.O=C(O)C(=O)O | -11.4%

Row | Compound | hERG current change (%, negative = inhibition) at 10uM
23 | COc1ccc2c(c1)C(=O)c1ccccc1CO2 | -0.833%
24 | CCOc1ccccc1N1CC(C(=O)Nc2ccc3c(c2)OCCO3)CC1=O (stereo not shown) | 11.2%
25 | CC(=NCCCN1CCOCC1)c1c(O)[nH]c(=O)[nH]c1=O | -2.27%
26 | O=C(Nc1ccccc1C(=O)O)c1cccc(NC(=O)c2ccc(Br)o2)c1 | 7.57%
27 | CCCCNC(=O)c1onc(CSc2ccc(F)c(F)c2)c1C(=O)O | 0.742%
28 | CN1CCN(C(=O)C2=C[C@H](c3ccc(C(F)(F)F)cc3)C[C@H](OCCCCO)O2)CC1 | -18.2%
29 | CC1(C)CC(=O)C2=C(C1)N(c1ccc(F)cc1)C(=O)C2(O)C(F)(F)F (stereo not shown) | -15.2%
30 | CS(=O)(=O)c1nc(-c2ccccc2)cc(-c2ccccc2)c1C#N | 8.33%
31 | CC(=O)Nc1sc(N/N=C/c2ccccc2F)nc1-c1ccc(C)cc1 | -1.61%
32 | O=C1CCc2cc(S(=O)(=O)N3CCC(C(=O)NC4CCCC4)CC3)ccc2N1 | -4.68%
33 | O=C(CSCc1ccccc1)N=Nc1c(O)[nH]c2ccccc12 | -19.1%
34 | COc1ccc(C(=O)CC(=O)C(=O)Nc2ccccc2C(F)(F)F)cc1 | 6.25%
35 | CC12C(=O)N(c3ccccc3C(=O)O)C(=O)C1C1C=CC2C1 (stereo not shown) | 16.7%
36 | COc1ccc(NC(=O)COC(=O)c2ccc(OCc3c(C)noc3C)cc2)cc1OC | 10%
37 | COc1ccc2[nH]c(=O)c(C(c3nnnn3C3CCCCC3)N3CCN(C)CC3)cc2c1 (stereo not shown) | -21.2%
38 | Cc1cc(SCC(=O)N/N=C/c2cccnc2)nc2c(C)cccc12 | 12%
39 | O=[N+]([O-])c1cnc(N2CCCCC2)c([N+](=O)[O-])c1 | 4.26%
40 | Cc1ccc(CC(=O)N2CCN(c3ccc([N+](=O)[O-])cc3)CC2)cc1 | -62.1%
41 | COc1ccc(CC(CC(=O)O)C(=O)NCc2ccccc2)cc1 (stereo not shown) | 61.1%
42 | COc1ccc2[nH]c3c(c2c1)CCN[C@H]3C | -3.82%
43 | C/C(=N/NS(=O)(=O)c1ccc(Cl)cc1)c1cccc(O)c1 | -2.62%
44 | CC(=NCC1CCCO1)c1c(O)n(-c2ccccc2C)c(=O)[nH]c1=O (stereo not shown) | -6.51%

Row | Compound | hERG current change (%, negative = inhibition) at 10uM
45 | Clc1cc(Cl)c(OCc2nc(-c3ccccn3)no2)cc1Cl | -1.18%
46 | CCCCn1c(/C=C/c2ccco2)nc2ccccc21 | -17.2%
47 | CC(=O)NN1C(=O)/C(=C2/Sc3ccc(Cl)cc3N2C)SC1=S | 10.6%
48 | CCc1ccc(S(=O)(=O)c2nnn3c2nc(NCCNC(C)=O)c2ccccc23)cc1 | 8.28%
49 | CCCCCOc1ccc(C(=O)CCN2CCOCC2)cc1.Cl | -2.54%
50 | Cc1ccc(OCCNC(=O)Cc2ccc(S(=O)(=O)N3CCOCC3)s2)cc1 | -24%
51 | Cc1ccc(/C=N/NC(=O)c2ccco2)s1 | -2.98%
52 | COC(=O)C1CCN(C(=O)[C@H](C)NC(=O)C2CC(=O)N(c3ccc(F)cc3)C2)CC1 (stereo partly shown) | 10.7%
53 | COC(=O)/C=C1\N/C(=N\c2nc(C)cc(C)n2)N(c2ccccc2)C1=O | 15.6%
54 | O=C(O)c1cc2ccccc2c(N=Nc2cccnc2)c1O | 6.49%
55 | C1COCCO1.N#C/C(=C(/O)C(Cl)c1ccccc1)c1nc2ccccc2s1 (stereo not shown) | -0.386%
56 | CCN(CCCNS(=O)(=O)c1cc(-c2cc(C)no2)ccc1C)Cc1ccccc1 | -61.3%
57 | CN(CC(=O)Nc1ccc(F)cc1)C(=O)COC(=O)C1=COCCO1 | -20%
58 | CC1(C)Cc2nc3oc4c(N5CCOCC5)ncnc4c3cc2CO1 | -9.23%
59 | Cc1ccc(-n2c(SCC(=O)Nc3ccc(N4CCOCC4)cc3)nc3ccccc3c2=O)cc1 | 6.08%
60 | COc1ccc(/C=N/Nc2snc(SC)c2C#N)cc1OC | -2.63%
61 | O=C(CCCOc1ccc(Cl)cc1)NCCc1ccccc1 | 5.77%
62 | COc1ccc2c(c1)CC/C(=C\C=C\c1ccccc1OC)C2=O | 8.8%
63 | CNC(=O)c1ccc(CNC(=O)OCc2ccccc2)cc1 | 21.4%
64 | CC1CCCC(C)N1CC(O)COC1CCC(C(C)(C)C)CC1.Cl (stereo not shown) | -14.8%
65 | O=C(NCc1ccco1)/C(=C/c1ccccc1F)NC(=O)c1ccccc1 | 17.3%
66 | CCOC(=O)c1ccc(NC(=O)CSc2nc(N3CCOCC3)nc(N3CCOCC3)n2)cc1 | 11.1%

Row | Compound | hERG current change (%, negative = inhibition) at 10uM
67 | CC(=O)c1cccc(S(=O)(=O)NC2CC2)c1 | 0.903%
68 | CCN(CC)S(=O)(=O)c1ccc(NC(=O)COC(=O)c2ccc(Br)o2)cc1 | -24.4%
69 | CNC(=O)c1ncnnc1N(C)C(=O)NCc1ccccc1 | -0.0696%
70 | COCCCn1c(=O)/c(=C\c2ccccc2OC(C)C)s/c1=C(/C#N)C(=O)Nc1ccc(C(=O)O)cc1 | 4.48%
71 | c1ccc(-c2csc3ncnc(NCC4COc5ccccc5O4)c23)cc1 (stereo not shown) | 6.54%
72 | CCCCn1c(N)c(N(CC(C)C)C(=O)C2CC(=O)N(c3ccc(CC)cc3)C2)c(=O)[nH]c1=O (stereo not shown) | 18.8%
73 | Cn1c(=O)c(C#N)c(-c2ccc(F)cc2)c2cc(C(=O)c3cc(Cl)cc(Cl)c3O)cnc21 | 56.6%
74 | Cc1cccc(OCC(=O)Nc2ccc(CN3CCOCC3)cc2)c1C | -8.28%
75 | Cc1ccc2nc(NC(=O)Cn3cc4c(n3)CCCCC4)sc2c1 | -26.2%
76 | O=C(Nc1ccc(S(=O)(=O)NCc2ccco2)cc1)C1CCCCC1 | 12.3%
77 | CCOC(=O)/C=c1\s/c(=C\c2ccc3c(c2)OCCO3)c(=O)n1CC(=O)NCC1CCCO1 (stereo not shown) | 19.5%
78 | CC1CCN(CC(=O)N2CCN(c3ccccc3)CC2)CC1 | -4.24%
79 | O=c1c2ccccc2nc(-c2ccco2)n1CCc1ccc(O)cc1 | 7.91%
80 | Cc1ccc(-c2[nH]c(-c3ccc(Cl)cc3)nc2SCC(=O)NCC2CCCO2)cc1 (stereo not shown) | 9.82%
81 | Cc1ccccc1NC(=O)CSc1nc2scc(C)c2c(=O)[nH]1 | 15.3%
82 | CC(C)(C)n1ncc2c(=O)n(CC(=O)c3ccc(Cl)cc3)cnc21 | 7.58%
83 | COc1ccc(F)cc1CN1CCN(C(=O)CCC(=O)Nc2nnc(CC(C)C)s2)CC1 | -11.5%
84 | COC(=O)c1cc(NC(=O)CC2CCCC2)cc(C(=O)OC)c1 | 1.79%
85 | CCC1Oc2ccc(C)cc2N(CC(=O)N2CCN(c3ccc(F)cc3)CC2)C1=O (stereo not shown) | -54.1%
